Numbering of substitutions follows the chain as printed. Numbers in names are those of the source. No constants are given. Whether binding was seen depends on the method and setting. In cells and extracts the contact can be indirect. Some entries that bind do so weakly or less than the wild type. Each block holds one binder with its values, some of them ahead of it.
Molecular target: T1, Mre11 (wild type, in S. cerevisiae cell extracts) (S. cerevisiae) (UniProt P32829)
T1 sequence: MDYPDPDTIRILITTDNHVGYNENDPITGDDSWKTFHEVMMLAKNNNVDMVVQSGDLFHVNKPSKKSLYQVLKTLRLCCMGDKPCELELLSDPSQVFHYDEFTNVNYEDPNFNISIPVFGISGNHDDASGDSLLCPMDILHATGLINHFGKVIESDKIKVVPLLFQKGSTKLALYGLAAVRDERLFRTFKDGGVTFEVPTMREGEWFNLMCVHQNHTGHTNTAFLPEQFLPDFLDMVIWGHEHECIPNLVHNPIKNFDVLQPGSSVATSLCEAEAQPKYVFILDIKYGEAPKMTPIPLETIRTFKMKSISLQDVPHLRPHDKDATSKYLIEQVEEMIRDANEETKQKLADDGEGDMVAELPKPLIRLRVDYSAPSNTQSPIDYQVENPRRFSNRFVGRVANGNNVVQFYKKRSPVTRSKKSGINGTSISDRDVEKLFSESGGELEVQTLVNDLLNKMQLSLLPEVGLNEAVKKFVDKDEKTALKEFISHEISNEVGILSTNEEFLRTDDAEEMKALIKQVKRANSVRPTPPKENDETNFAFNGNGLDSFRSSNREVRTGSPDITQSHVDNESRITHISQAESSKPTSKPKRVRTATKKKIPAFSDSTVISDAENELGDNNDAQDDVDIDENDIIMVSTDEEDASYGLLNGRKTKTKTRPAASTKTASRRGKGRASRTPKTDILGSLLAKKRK
Assay: co-IP; cells grown at 30°C or 37°C; Rad50, Mre11 or Xrs2 immunoprecipitated from cell extracts, western blot with anti-Rad50, anti-Mre11 or anti-Xrs2 antibodies

B1: Xrs2 (in S. cerevisiae cell extracts) (protein, UniProt P33301 1-854)
chain: MWVVRYQNTLEDGSISFISCCLQAFKTYSIGRSSKNPLIIKNDKSISRQHITFKWEINNSSDLKHSSLCLVNKGKLTSLNKKFMKVGETFTINASDVLKSTIIELGTTPIRIEFEWINEVWNIPPHLTQFRTMLSEYGISTEISINDIPANLMISDYPKSEDNSIRELYALVSTIPMKKSRFLMELCNTLLPTSKTNLKFDEMWNDMISNPEYNVFDFDPNILLSKFMRLNNIRVLTTIKSEPRLSSLLRTFNINLFAFDNIDSLYKYVDSLEASTEYLILTTTDKKENGKILCTIKTMLTSIIDGTLSAVINMKGASSRTLDNGKFDQISEGMSTILKTSRAPEVEASPVVSKKRKLNRRRVLPLDSLDFFAGGLSTKTLSENRSLTDAKRLNCGAESKTVISSPNIAEADEKHAPFLQNALKPTEDIGKKSGHSSPGAIIVSSPNLGTVNTSEDSLDKSLQSHKLPQPSLPEVAGIGSQTISSNSADYETAAVNSMDDAEVTKNFRVNHHQNIEQPSKNIRKLSNYSREISSPLQENCKSPVKELSIKEKSGTPHAFVEAIQETKNREVKRVKSTIVELKDEELSEEAINQLKNLAIVEPSNNLLRKSFDSEGNKTSRTTEKWENSLMEPEWHKRKNFKTFVKVRPKSKAHKEEGKNNTQSSDFIRNAAFLITRNYVPLKKYSKKDTTTKWGTEENEDMFALTEMERFGSNTFMSDNINSNTIQKRSQALNRFTNEDSSNEGEEDSFSFSRCSGTAASVQPLKNKIFITDEDDLGDIDDKSDRLNHRENNRNLFVVKEMNLRPNLSEECSKQSRHSRSATSRSRGSFGASNNGDGDDDDDDGPKFTFKRRKG
- binding: binds

B2: Rad50-R13A (enzyme, UniProt P12753 1-1312)
chain: MSAIYKLSIQGIASFDSNDRETIEFGKPLTLIVGMNGSGKTTIIECLKYATTGDLPPNSKGGVFIHDPKITGEKDIRAQVKLAFTSANGLNMIVTRNIQLLMKKTTTTFKTLEGQLVAINNSGDRSTLSTRSLELDAQVPLYLGVPKAILEYVIFCHQEDSLWPLSEPSNLKKKFDEIFQAMKFTKALDNLKSIKKDMSVDIKLLKQSVEHLKLDKDRSKAMKLNIHQLQTKIDQYNEEVSEIESQLNEITEKSDKLFKSNQDFQKILSKVENLKNTKLSISDQVKRLSNSIDILDLSKPDLQNLLANFSKVLMDKNNQLRDLETDISSLKDRQSSLQSLSNSLIRRQGELEAGKETYEKNRNHLSSLKEAFQHKFQGLSNIENSDMAQVNHEMSQFKAFISQDLTDTIDQFAKDIQLKETNLSDLIKSITVDSQNLEYNKKDRSKLIHDSEELAEKLKSFKSLSTQDSLNHELENLKTYKEKLQSWESENIIPKLNQKIEEKNNEMIILENQIEKFQDRIMKTNQQADLYAKLGLIKKSINTKLDELQKITEKLQNDSRIRQVFPLTQEFQRADLEMDFQKLFINMQKNIAINNKKMHELDRRYTNALYNLNTIEKDLQDNQKSKEKVIQLLSENLPEDCTIDEYNDVLEETELSYKTALENLKMHQTTLEFNRKALEIAERDSCCYLCSRKFENESFKSKLLQELKTKTDANFEKTLKDTVQNEKEYLHSLRLLEKHIITLNSINEKIDNSQKCLEKAKEETKTSKSKLDELEVDSTKLKDEKELAESEIRPLIEKFTYLEKELKDLENSSKTISEELSIYNTSEDGIQTVDELRDQQRKMNDSLRELRKTISDLQMEKDEKVRENSRMINLIKEKELTVSEIESSLTQKQNIDDSIRSKRENINDIDSRVKELEARIISLKNKKDEAQSVLDKVKNERDIQVRNKQKTVADINRLIDRFQTIYNEVVDFEAKGFDELQTTIKELELNKAQMLELKEQLDLKSNEVNEEKRKLADSNNEEKNLKQNLELIELKSQLQHIESEISRLDVQNAEAERDKYQEESLRLRTRFEKLSSENAGKLGEMKQLQNQIDSLTHQLRTDYKDIEKNYHKEWVELQTRSFVTDDIDVYSKALDSAIMKYHGLKMQDINRIIDELWKRTYSGTDIDTIKIRSDEVSSTVKGKSYNYRVVMYKQDVELDMRGRCSAGQKVLASIIIRLALSETFGANCGVIALDEPTTNLDEENIESLAKSLHNIINMRRHQKNFQLIVITHDEKFLGHMNAAAFTDHFFKVKRDDRQKSQIEWVDINRVTY
- binding: binds

B4: Rad50-T111A R1201A (enzyme, UniProt P12753 1-1312)
chain: B2 chain with A13R, T111A, R1201A
- binding: binds

B5: Rad50-D1126A (enzyme, UniProt P12753 1-1312)
chain: B2 chain with A13R, D1126A
- binding: no binding

B6: Rad50-K103A K104A R1201A (enzyme, UniProt P12753 1-1312)
chain: B2 chain with A13R, K103A, K104A, R1201A
- binding: binds

B10: Rad50-D1126E (enzyme, UniProt P12753 1-1312)
chain: B2 chain with A13R, D1126E
- binding: no binding

B12: Rad50-N36A (enzyme, UniProt P12753 1-1312)
chain: B2 chain with A13R, N36A
- binding: binds

B13: Rad50-D1126N (enzyme, UniProt P12753 1-1312)
chain: B2 chain with A13R, D1126N
- binding: no binding

Results, then the binder that gave them:

- binding: binds
B3: Rad50-MRI-3A (Rad50-E1155A D1167A E1243A) (enzyme, UniProt P12753 1-1312)
chain: B2 chain with A13R, E1155A, D1167A, E1243A

- binding: no binding
B7: Rad50-W1157A (enzyme, UniProt P12753 1-1312)
chain: B2 chain with A13R, W1157A

- binding: binds
B8: Rad50–3KA (Rad50-K192A K195A K196A) (enzyme, UniProt P12753 1-1312)
chain: B2 chain with A13R, K192A, K195A, K196A

- binding: binds
B9: Rad50-K195A R1201A (enzyme, UniProt P12753 1-1312)
chain: B2 chain with A13R, K195A, R1201A

- binding: binds
B11: Rad50-K192A R1201A (enzyme, UniProt P12753 1-1312)
chain: B2 chain with A13R, K192A, R1201A

- binding: binds weakly
B14: Rad50-W1157Y (enzyme, UniProt P12753 1-1312)
chain: B2 chain with A13R, W1157Y
